# The list shows a part of the results. Sequences were assembled here from the parent chain. Inactive controls read about 0.05.
# B1: TEV protease; numbered along this chain (parent)
# chain: MGESLFKGPRDYNPISSSICHLTNESDGHTTSLYGIGFGPFIITNKHLFRRNNGTLVVQSLHGVFKVKDTTTLQQHLVDGRDMIIIRMPKDFPPFPQKLKFREPQREERICLVTTNFQTKSMSSMVSDTSCTFPSGDGIFWKHWIQTKDGQCGSPLVSTRDGFIVGIHSASNFTNTNNYFTSVPKNFMELLTNQEAQQWVSGWRLNADSVLWGGHKVFMVKPEEPFQPVKEATQL
# Variants of: B1
# Assay: raw area under fraction-flipped curve 0-4 h after induction (AUC4h, not background-subtracted), DNA-recorder readout of cleavage of the substrate (dimensionless); higher = more cleavage of the substrate by the protease variant
# Details: temperature: 34 °C; time window: 0-4 h after rhamnose induction
# Procedure: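 In vivo DNA recorder in E. coli TOP10(DE3) ΔrhaA at 34 °C. Each TEVp single-site mutant (parent TEVp 0) is paired with a single-site variant of the 7-mer TEVs (canonical ENLYFQ|S). The substrate sits between flexible linkers in a Bxb1-sfGFP-TEVs-SsrA fusion, so cleavage stabilises Bxb1 and speeds flipping of a recombination array, read by NGS. The value is the raw area under the fraction-flipped curve over 0-4 h after rhamnose induction (AUC4h), with ≥20 reads per time point. It is not background-subtracted; inactive controls average about 0.047.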
# 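Also: Bxb1 expression induced with 0.2% (w/v) L-rhamnose at OD600 near 0.5, cultures sampled hourly, flipped fraction per protease–substrate barcode pair counted by paired-end Illumina sequencing.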
Variant,area with substrate ENLAFQS,area with substrate ENLCFQS,area with substrate ENLDFQS,area with substrate ENLEFQS,area with substrate ENLFFQS,area with substrate ENLHFQS,area with substrate ENLIFQS,area with substrate ENLKFQS,area with substrate ENLLFQS,area with substrate ENLMFQS,area with substrate ENLNFQS,area with substrate ENLPFQS,area with substrate ENLQFQS,area with substrate ENLRFQS,area with substrate ENLSFQS,area with substrate ENLTFQS,area with substrate ENLVFQS,area with substrate ENLWFQS,area with substrate ENLGFQS
S32G,0.0516,0.0415,0.0596,0.0588,0.0915,0.0685,0.0686,0.0748,0.0527,0.0627,0.0653,0.0532,0.0648,0.0673,0.0696,0.0667,0.0909,0.058,
W144C,0.0556,0.074,0.0735,0.069,0.0681,0.0744,0.133,0.0675,0.0855,,0.0625,0.0534,0.0757,0.0906,0.0814,0.0903,,0.063,0.0619
T72S,0.0615,0.0605,,,0.0632,,,0.0424,0.0719,,0.0701,,,,0.068,0.0644,0.0924,,
K216H,0.0609,0.0716,0.0481,0.0638,0.103,0.0663,,0.0757,0.0728,0.0753,0.0479,0.0559,,0.0621,0.0623,,,0.0747,0.0562
K216F,0.0565,0.0793,0.0625,,0.0734,0.058,0.0709,0.0614,0.0844,,,,0.0532,0.0654,,,,0.0659,0.0598
E25K,0.0624,0.0435,0.0638,,0.0929,0.0748,0.0945,0.0766,0.0625,0.0801,0.0598,0.054,0.0615,0.0177,0.0615,,0.0871,,
W144M,0.0834,0.0716,,0.0626,0.0721,0.0676,0.067,0.0751,,,0.0727,0.0615,0.0691,0.0668,0.0597,,,,
Q105F,0.0564,,0.0595,0.0647,0.0819,0.0658,0.0855,0.0698,0.0638,,0.0707,0.0662,0.0543,0.0855,0.0609,0.0698,,0.0638,
L112Y,0.0512,0.0625,0.067,0.0648,0.0691,0.0568,0.0586,0.0669,,0.0529,0.032,0.066,0.067,0.0648,,,0.0564,0.0591,0.0574
N13T,0.0713,0.0737,0.0567,,0.0663,0.0761,0.079,0.0721,,,0.07,,0.0663,0.0692,,,0.0762,0.075,
L48G,0.0504,0.06,0.0479,0.0596,0.0678,0.058,0.0973,0.0611,,,0.0629,0.0651,0.0902,0.0724,0.0627,0.0696,0.0484,0.06,
S16R,0.0631,0.0734,0.0688,0.0629,0.105,0.0703,0.0983,0.0877,,0.08,0.0677,0.0572,0.0704,,0.0381,,0.0774,0.0738,

# Source: the supplement of paper PMC12217912
